The results in this text go back to publication PMC5437018.

Protein sequences, listed by entry. Tags and fused reporters are not part of them.
UniProt P62137: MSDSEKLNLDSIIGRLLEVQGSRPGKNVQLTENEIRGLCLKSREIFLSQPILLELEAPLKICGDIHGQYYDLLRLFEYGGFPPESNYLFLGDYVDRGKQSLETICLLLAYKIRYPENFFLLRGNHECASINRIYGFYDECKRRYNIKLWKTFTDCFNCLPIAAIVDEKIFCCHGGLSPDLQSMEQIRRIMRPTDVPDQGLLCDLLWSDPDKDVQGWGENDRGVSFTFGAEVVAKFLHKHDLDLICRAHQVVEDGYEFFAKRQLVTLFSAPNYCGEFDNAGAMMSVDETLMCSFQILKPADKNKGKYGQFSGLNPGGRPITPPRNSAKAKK
UniProt P62136: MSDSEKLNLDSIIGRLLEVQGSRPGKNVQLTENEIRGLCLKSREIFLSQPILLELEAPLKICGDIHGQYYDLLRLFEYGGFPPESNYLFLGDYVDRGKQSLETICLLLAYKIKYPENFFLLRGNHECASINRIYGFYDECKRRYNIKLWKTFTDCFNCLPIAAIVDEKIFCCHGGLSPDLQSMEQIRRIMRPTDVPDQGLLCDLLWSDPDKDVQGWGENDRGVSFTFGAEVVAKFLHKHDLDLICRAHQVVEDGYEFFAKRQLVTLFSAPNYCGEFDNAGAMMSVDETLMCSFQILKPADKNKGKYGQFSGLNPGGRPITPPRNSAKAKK

Experiment [1] addresses Rif1^FLAG-HA2 (endogenous mouse Rif1 carrying a knock-in FLAG-HA2 tag) (mouse) (UniProt Q6PR54). As to the kind of experiment: co-IP; immunoprecipitation of Rif1-associated proteins from Rif1^FH/+ ESCs, immunoblotting with anti-PP1 antibody. On the technique in general: Immunoblotting shows a protein as a band on a membrane.
Experiment [2] deals with T1, GST-Rif1 CRI (2093–2190) (mouse) (UniProt Q6PR54).
T1 sequence: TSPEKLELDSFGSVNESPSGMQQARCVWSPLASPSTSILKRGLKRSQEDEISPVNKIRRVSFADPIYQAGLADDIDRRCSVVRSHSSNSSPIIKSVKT
In words: pull-down; GST-Rif1 fragments on Glutathione Sepharose beads incubated overnight at 4 °C with E. coli crude lysate containing hexahistidine-tagged PP1; washed 4 times with 50 mM phosphate pH 7.4, 500 mM NaCl, 5 mM DTT; blot with anti-hexahistidine antibody; only the target purified.

Experiment [3] deals with T2, GST-Rif1 CRI+II (2090–2316) (mouse) (UniProt Q6PR54).
T2 sequence: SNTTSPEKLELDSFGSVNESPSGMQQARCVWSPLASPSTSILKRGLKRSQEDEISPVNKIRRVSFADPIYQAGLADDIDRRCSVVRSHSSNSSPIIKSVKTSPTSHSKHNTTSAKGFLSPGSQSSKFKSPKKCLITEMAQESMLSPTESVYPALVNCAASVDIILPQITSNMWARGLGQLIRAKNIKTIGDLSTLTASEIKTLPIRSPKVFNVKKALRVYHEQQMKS
The description is as above.

Experiment [4] addresses T3, GST-Rif1 CRI+II+III (2093–2418) (mouse) (UniProt Q6PR54).
T3 sequence: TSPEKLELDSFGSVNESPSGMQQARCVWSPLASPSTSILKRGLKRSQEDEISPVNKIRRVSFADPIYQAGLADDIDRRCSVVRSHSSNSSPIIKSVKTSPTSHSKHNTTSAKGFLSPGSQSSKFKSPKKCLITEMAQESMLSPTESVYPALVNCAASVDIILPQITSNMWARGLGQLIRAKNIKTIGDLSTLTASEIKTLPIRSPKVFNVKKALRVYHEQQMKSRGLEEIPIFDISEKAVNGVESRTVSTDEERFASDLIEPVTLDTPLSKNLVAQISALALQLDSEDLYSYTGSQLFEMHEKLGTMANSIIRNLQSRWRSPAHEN
The description is as above.

Experiment [5] concerns the target T4, GST-Rif1 CRII (2226–2340) (mouse) (UniProt Q6PR54).
T4 sequence: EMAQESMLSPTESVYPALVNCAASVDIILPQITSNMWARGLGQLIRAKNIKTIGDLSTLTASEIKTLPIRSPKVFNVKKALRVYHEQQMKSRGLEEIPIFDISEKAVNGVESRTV
The description is as above.

The target in experiment [6] is T5, GST-Rif1 CRII+III (2226–2418) (mouse) (UniProt Q6PR54).
T5 sequence: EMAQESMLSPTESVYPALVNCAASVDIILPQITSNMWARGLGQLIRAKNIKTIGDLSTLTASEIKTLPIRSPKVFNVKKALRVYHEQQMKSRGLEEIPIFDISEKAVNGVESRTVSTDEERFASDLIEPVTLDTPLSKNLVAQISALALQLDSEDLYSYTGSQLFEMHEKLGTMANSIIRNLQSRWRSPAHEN
The experiment is described as above.

The target of experiment [7] is T6, GST-Rif1 CRIII (2340–2418) (mouse) (UniProt Q6PR54).
T6 sequence: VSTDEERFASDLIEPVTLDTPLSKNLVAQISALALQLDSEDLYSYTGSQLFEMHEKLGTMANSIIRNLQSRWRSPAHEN
The experiment is described as above.

The target in experiment [8] is T7, GST-tagged Rif1 HEAT repeat region (residues 1–966) (mouse) (UniProt Q6PR54).
T7 sequence: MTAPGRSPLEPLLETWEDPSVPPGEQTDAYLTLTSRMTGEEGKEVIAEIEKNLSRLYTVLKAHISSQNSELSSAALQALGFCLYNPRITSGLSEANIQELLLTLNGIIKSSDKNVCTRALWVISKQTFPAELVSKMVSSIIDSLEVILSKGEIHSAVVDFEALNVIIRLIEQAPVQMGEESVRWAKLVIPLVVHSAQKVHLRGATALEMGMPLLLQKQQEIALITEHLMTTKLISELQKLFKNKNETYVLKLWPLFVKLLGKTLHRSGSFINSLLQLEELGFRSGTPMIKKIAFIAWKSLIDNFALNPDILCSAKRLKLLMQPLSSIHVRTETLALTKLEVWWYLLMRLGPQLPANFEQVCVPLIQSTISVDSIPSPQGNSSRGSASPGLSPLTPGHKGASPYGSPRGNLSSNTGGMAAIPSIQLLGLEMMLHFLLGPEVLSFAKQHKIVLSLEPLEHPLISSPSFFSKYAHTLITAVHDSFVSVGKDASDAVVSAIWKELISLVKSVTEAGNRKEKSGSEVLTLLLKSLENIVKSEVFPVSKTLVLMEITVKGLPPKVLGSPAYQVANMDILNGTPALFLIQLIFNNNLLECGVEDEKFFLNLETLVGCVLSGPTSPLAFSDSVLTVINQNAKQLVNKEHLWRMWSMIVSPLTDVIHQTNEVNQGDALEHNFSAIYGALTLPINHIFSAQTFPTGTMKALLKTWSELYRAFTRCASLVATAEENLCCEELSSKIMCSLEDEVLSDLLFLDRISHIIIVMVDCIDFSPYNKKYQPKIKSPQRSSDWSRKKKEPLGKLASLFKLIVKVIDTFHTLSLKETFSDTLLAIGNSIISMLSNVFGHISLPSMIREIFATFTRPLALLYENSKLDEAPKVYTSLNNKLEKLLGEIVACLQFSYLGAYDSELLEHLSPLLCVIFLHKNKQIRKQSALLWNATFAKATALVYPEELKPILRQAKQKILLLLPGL
The description is as above.

These are yes or no findings as the source states them, for the method shown. Binding seen in cells or lysates may run through a third protein. Some entries that bind do so weakly or less than the wild type. For some assays here: Sequences can lack the tags named with a protein.

For the substance “Protein phosphatase 1 subunit A (endogenous) (from UniProt P62137 1-330) (enzyme)”, the binding entry in experiment [1] was “binds”.
As to “Recombinant hexahistidine-tagged PP1 (α-isoform, residues 1–330), in E. coli crude lysate (from UniProt P62136 1-330) (enzyme)”, the binding entry in experiment [2] was “binds”; in experiment [3], “binds”; in experiment [4] it was “binds”; in experiment [5] it was “no binding”; in experiment [6], “no binding”; in experiment [7] it was “no binding”. The binding result in experiment [8] was “no binding”.
